Hit rate of the full screen: of about 94,000 compounds, about 4,000 (4.3%) were called active. The inconclusive results got no clear call from the source; some entries with a clear call stand among them for comparison. The call rests on the fitted dose curve; in most records, active means well fitted inhibition curve with a large enough effect; inconclusive means small, poorly fitted or top-dose-only effect; inactive means no such curve, though single readings can be large or run the other way. Potencies of inconclusive entries are doubtful fits and often do not repeat.
Experiment: Cytotoxic Profiling in NIH 3T3 Cell Line of Diverse Libraries Using Quantitative High-Throughput Screening; further: nearly all actives have a fitted effect of over 55% in size
Conditions: NIH 3T3 viability, CellTiter-Glo ATP luminescence, 48-72 h; activity change, negative = cytotoxicity: at 96.7 µM (top of the series) unless noted; series mostly up to 96.7 µM
In short: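 Cytotoxicity was measured by CellTiter-Glo ATP luminescence after 48 or 72 h compound exposure at 37 °C. Mouse NIH 3T3 fibroblasts were seeded at 400 cells/well and dosed by 23 nL pin transfer.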
On the % scale 0 is the no-effect control and ±100 the full control effect; potency means the concentration at half of the fitted maximal effect; tags describe the fitted curve by direction and shape.

Compound	activity change, negative = cytotoxicity	Potency	outcome
COc1ccc2[nH]c(CNC(=O)C(c3ccc(F)cc3)N(C)C)cc2c1 (stereo not drawn)	inactive: -22.2%	–	–
Cc1ccccc1Cc1c(C)nc2c(C(=O)NCCc3noc(-c4cccnc4)n3)cnn2c1C	–	inconclusive: 44.7 µM [inhibitor, partial curve, poor fit]	–
COC(=O)CNC(=O)C1CCCN1C(=O)c1cccc(-c2ccccn2)c1 (stereo not drawn)	inactive: -9.02%	–	–
CN1CCC(OC2CCN(C(=O)c3ccc(Cl)s3)CC2)CC1	–	inconclusive: 44.7 µM [inhibitor, partial curve, poor fit]	–
CC(Cn1cncn1)C(=O)N1CCc2onc(-c3ccc(F)c(F)c3)c2C1 (stereo not drawn)	inactive: -2.41%	–	–
O=C(NC1CCCN(c2cc(-c3ccc(F)cc3)[nH]n2)C1)c1ccccc1Br (stereo not drawn)	–	inconclusive: 44.7 µM [inhibitor, partial curve, poor fit]	–
CN1C[C@@H](NC(=O)Nc2cccc(C#N)c2)C[C@H]1c1nc(-c2ccccn2)no1	inactive: -8.99% [at 174 µM]	–	–
CC(C)CCN1CCn2c(nnc2-c2ccccc2)C1	–	inconclusive: 100 µM [inhibitor, single point]	–
Cc1ccc2c(n1)OC(COc1ccccc1)CN(Cc1cccc(F)c1)C2=O (stereo not drawn)	–	inconclusive: 31.6 µM [inhibitor, partial curve, poor fit]	–
CC1Oc2ccc(NC(=O)c3cccs3)cc2CN(Cc2ccccc2)C1=O (stereo not drawn)	–	inconclusive: 50.1 µM [inhibitor, partial curve, poor fit]	–
CC(=O)N1CCN(C(=O)C2CCN(c3nccc(Nc4ccccc4Cl)n3)CC2)CC1	–	inconclusive: 50.1 µM [inhibitor, partial curve, poor fit]	–
CC1=C[C@@H](CN)[C@H](C(C)C)C[C@H]1Cc1nc2ccccc2[nH]1	–	inconclusive: 126 µM [inhibitor, single point]	–
CC1(C)CN(C(=O)COc2ccccc2)CC(=O)N(Cc2ccccc2)C1	–	inconclusive: 50.1 µM [inhibitor, partial curve, poor fit]	–
CCOc1ccccc1N1CCN(C(=O)CCn2ccn3nc4c(c3c2=O)CCCC4)CC1	inactive: -20.2%	–	–
Cn1cc(-c2cccc(CO)c2)c2nc(COc3ccc(Cl)cc3)cn2c1=O	–	inconclusive: 56.2 µM [inhibitor, partial curve, poor fit]	–
O=C(C1CC=CC1)N1CC(c2nnc(-c3ccncc3)o2)C2(CCOCC2)C1 (stereo not drawn)	inactive: -15.7%	–	–
Cc1ccc(NC(=O)Cn2ccn3nc4c(c3c2=O)CC(C)CC4)cc1 (stereo not drawn)	–	inconclusive: 50.1 µM [inhibitor, partial curve, poor fit]	–
CC(=O)N1CCc2ccc(C(=O)N3CCC(C)CC3)cc21	–	–	inactive
CC(C)NC(=O)c1cc(-c2ccc(S(C)(=O)=O)cc2)c2cnn(C)c2n1	–	inconclusive: 70.8 µM [inhibitor, single point]	–
CCCc1ccc(S(=O)(=O)N(C)CC2CCOCC2)cc1	–	inconclusive: 50.1 µM [inhibitor, partial curve, poor fit]	–
COCCCn1c(C)cc(C(=O)NCCc2noc(COC)n2)c1C	–	–	inactive

Compound	activity change, negative = cytotoxicity	Potency	outcome
CNC(=O)c1cc(-c2cnn(C)c2C)cc2c1OCCN2Cc1cccnc1	–	active: 44.7 µM	–
Cc1ccc(-c2ncc3c(n2)OCCN(c2ccccc2)C3=O)cc1F	–	inconclusive: 39.8 µM [inhibitor, partial curve, poor fit]	–
CCc1nc2c(c(-c3ccc(O)cc3)n1)CCN(Cc1ccccn1)CC2	inactive: 3.89%	–	–
CC(=O)Nc1cccc(C(=O)N2CCC3(CC2)NC(=O)N(c2cccc(Cl)c2)N3)c1	–	inconclusive: 22.4 µM [inhibitor, partial curve]	–
COc1ccc(-c2ccc(C(=O)NCc3ccccc3F)cc2)nn1	–	inconclusive: 89.1 µM [inhibitor, partial curve]	–
O=C(Cc1ccc(Cl)cc1)N1CCC(n2cc(-c3nc(-c4ccccc4)no3)nn2)C1 (stereo not drawn)	–	inconclusive: 31.6 µM [inhibitor, partial curve]	–
CNC(=O)c1cc(C2CC2)nc2c1c(C1CCN(C(=O)c3ccc(F)cc3)C1)nn2C (stereo not drawn)	inactive: -26.5%	–	–
COc1ccc(-c2ccnc(-c3nnc(C)n3Cc3ccccc3)c2)cc1OC	–	inconclusive: 63.1 µM [inhibitor, partial curve, poor fit]	–
COc1ccc(CCC(=O)N2Cc3ccccc3OC3(CCN(C)CC3)C2)cc1	inactive: -16.8%	–	–
CCOCC1(C)COc2ccc(C(=O)N(C)Cc3ccccc3)cc2N1 (stereo not drawn)	–	inconclusive: 89.1 µM [inhibitor, partial curve]	–
COC(=O)c1ccccc1NC(=O)N1CCC[C@@H](O)[C@H](NC(=O)c2ccc(OCc3ccccc3)cc2)C1	–	inconclusive: 50.1 µM [inhibitor, partial curve, poor fit]	–
Cc1cc(Cl)ccc1NC(=O)N1CCCC(Cn2cnc3cccnc32)C1 (stereo not drawn)	inactive: -21.8%	–	–
CN1Cc2ncnc(NCCc3ccccc3)c2CN(c2ccc(Cl)cc2)C1=O	–	inconclusive: 35.5 µM [inhibitor, partial curve]	–
O=C(c1nnc(COc2ccc(OC(F)(F)F)cc2)n1-c1ccccc1)N1CCC[C@@H]1C(c1ccccc1)c1ccccc1	–	active: 4.47 µM	–
COc1cc(-c2onc(C)c2C(=O)N2CCC(Cc3ccc4c(c3)OCO4)CC2)cc(OC)c1OC	–	inconclusive: 70.8 µM [inhibitor, partial curve, poor fit]	–
Cc1cc(C)c(CNC(=O)c2nc(-c3ccc(CO)cc3)cc3c2ccn3C(C)C)c(=O)[nH]1	–	inconclusive: 50.1 µM [inhibitor, partial curve, poor fit]	–
CS(=O)(=O)c1ccc(CN2C[C@H](O)C[C@H]2c2nc(-c3ccc(F)cc3)no2)cc1	inactive: -11.9% [at 138 µM]	–	–
Cc1ccsc1C(=O)N1CCC2(CC1)NC(=O)N(Cc1ccccc1)C2=O	inactive: -18.2%	–	–
COC(=O)c1nc(NC(=O)C[C@H]2NC(=O)c3ccccc3NC2=O)sc1CC(C)C	–	inconclusive: 50.1 µM [inhibitor, partial curve, poor fit]	–
O=C(O)c1ccc(-c2ccc(N3CCCCCC3)nc2)cc1	–	inconclusive: 25.1 µM [inhibitor, full curve, poor fit]	–
COc1ccc(C2Cn3nnc(C(=O)NC4CCCCCCC4)c3CO2)cc1 (stereo not drawn)	–	inconclusive: 44.7 µM [inhibitor, partial curve, poor fit]	–

Compound	activity change, negative = cytotoxicity	Potency	outcome
Cc1nn2c(c1-c1ccccc1-c1ccccc1)N(Cc1ccc(O)cc1)CCC2	–	active: 8.91 µM	–
Cc1cc(C)c2[nH]c(C(=O)N(C)Cc3ccc4nsnc4c3)c(C)c2c1	–	inconclusive: 50.1 µM [inhibitor, partial curve, poor fit]	–
COc1ccc(-c2cccc(COc3cnc4c(ccn4CC(=O)O)c3)c2)c(C)c1	–	inconclusive: 100 µM [inhibitor, partial curve, poor fit]	–
O=C(NC1CCCC1)C1CCCCN1Cc1ccc(-c2ccsc2)cc1 (stereo not drawn)	–	inconclusive: 20 µM [inhibitor, full curve, poor fit]	–
O=C(C1CC1)N1CC(F)(F)C[C@H]1c1nc(-c2cccnc2)no1	–	–	inactive
COc1ccc(Nc2ccnc(N3CCC(NC(=O)c4ccccc4F)CC3)n2)cc1	–	inconclusive: 35.5 µM [inhibitor, partial curve, poor fit]	–
Cc1ccc(CN2CCCC(c3nc(-c4cccnc4)no3)CCNC(=O)CC2)s1 (stereo not drawn)	–	inconclusive: 44.7 µM [inhibitor, partial curve, poor fit]	–
FC(F)(F)c1ccc(CN2CCNc3cc(Nc4ccccc4)ncc3C2)cc1	–	active: 25.1 µM	–
O=C(NCC1CCCN(C(=O)c2ccccn2)C1)c1ccc(-c2ccccc2)cc1 (stereo not drawn)	–	inconclusive: 56.2 µM [inhibitor, partial curve, poor fit]	–
Cc1noc(C)c1[S+](=O)([O-])N1CCCC(c2nn(-c3ccccn3)c(=O)[nH]2)C1 (stereo not drawn)	inactive: -13.1%	–	–
COc1ccc(-c2nnc3n2CCN(C(=O)Cc2cccc(Cl)c2)C3)cc1	–	inconclusive: 50.1 µM [inhibitor, partial curve, poor fit]	–
COc1ccc(-c2cnc3[nH]cc(CC(=O)Nc4cccnc4)c3c2)cc1	–	inconclusive: 20 µM [inhibitor, full curve, poor fit]	–
COc1ccc(CNC(=O)C2CCN(c3nccc(Nc4ccc(OC)cc4)n3)CC2)cc1	–	active: 39.8 µM	–
CC(C)(C)CCN1CCC(F)(c2nc(-c3ccccc3)no2)CC1	–	inconclusive: 50.1 µM [inhibitor, partial curve, poor fit]	–
CC[C@H]1CN(C(=O)Nc2cccc(C(F)(F)F)c2)CC[C@H]1CC(=O)Nc1ccccc1	–	inconclusive: 79.4 µM [inhibitor, partial curve]	–
CCOc1ccc(CC(=O)NC2CCCN(c3cc(-c4ccc(F)cc4)[nH]n3)C2)cc1OCC (stereo not drawn)	–	inconclusive: 44.7 µM [inhibitor, partial curve, poor fit]	–
CC1Oc2ccc(NC(=O)c3ccccc3Cl)cc2CN(Cc2ccccc2F)C1=O (stereo not drawn)	–	inconclusive: 44.7 µM [inhibitor, partial curve]	–
CCN1CCN(C(=O)c2cc(-c3ccc(F)cc3)nc3c2cnn3C)CC1	–	inconclusive: 89.1 µM [inhibitor, partial curve]	–
COc1cc(Cl)c(C)cc1NC(=O)Cn1ccn2nc(-c3ccccc3)c(CO)c2c1=O	–	inconclusive: 50.1 µM [inhibitor, partial curve, poor fit]	–
COc1cccc(-c2nc(-c3nnn4c3COC(c3ccccc3Cl)C4)no2)c1OC (stereo not drawn)	inactive: -9.73%	–	–
CN1CCC(NC(=O)c2n[nH]c3c2CN(C(=O)c2ccccc2)CC3)CC1	–	–	inactive

— PubChem BioAssay AID1345082 (National Center for Advancing Translational Sciences (NCATS), 2018)
